# From the supplement of paper PMC12217912
# The other results are listed elsewhere or left out. Sequences were assembled here from the parent chain. Inactive controls read about 0.05.
# B1: TEV protease; numbered along this chain (parent)
# chain: MGESLFKGPRDYNPISSSICHLTNESDGHTTSLYGIGFGPFIITNKHLFRRNNGTLVVQSLHGVFKVKDTTTLQQHLVDGRDMIIIRMPKDFPPFPQKLKFREPQREERICLVTTNFQTKSMSSMVSDTSCTFPSGDGIFWKHWIQTKDGQCGSPLVSTRDGFIVGIHSASNFTNTNNYFTSVPKNFMELLTNQEAQQWVSGWRLNADSVLWGGHKVFMVKPEEPFQPVKEATQL
# Variants of: B1
# Assay: raw area under fraction-flipped curve 0-4 h after induction (AUC4h, not background-subtracted), DNA-recorder readout of cleavage of the substrate (dimensionless); higher = more cleavage of the substrate by the protease variant
# Settings: temperature: 34 °C; time window: 0-4 h after rhamnose induction
# Procedure: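 In vivo DNA recorder in E. coli TOP10(DE3) ΔrhaA at 34 °C. Each TEVp single-site mutant (parent TEVp 0) is paired with a single-site variant of the 7-mer TEVs (canonical ENLYFQ|S). The substrate sits between flexible linkers in a Bxb1-sfGFP-TEVs-SsrA fusion, so cleavage stabilises Bxb1 and speeds flipping of a recombination array, read by NGS. The value is the raw area under the fraction-flipped curve over 0-4 h after rhamnose induction (AUC4h), with ≥20 reads per time point. It is not background-subtracted; inactive controls average about 0.047.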
# 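Also: Bxb1 expression induced with 0.2% (w/v) L-rhamnose at OD600 near 0.5, cultures sampled hourly, flipped fraction per protease–substrate barcode pair counted by paired-end Illumina sequencing.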
Variant,area with substrate ENLYFCS,area with substrate ENLYFES,area with substrate ENLYFHS,area with substrate ENLYFIS,area with substrate ENLYFKS,area with substrate ENLYFLS,area with substrate ENLYFMS,area with substrate ENLYFPS,area with substrate ENLYFRS,area with substrate ENLYFSS,area with substrate ENLYFTS,area with substrate ENLYFDS,area with substrate ENLYFGS,area with substrate ENLYFNS,area with substrate ENLYFWS,area with substrate ENLYFYS,area with substrate ENLYFFS,area with substrate ENLYFVS
MGESLFKGPRDYNPISSSICHLTNESDGHTTSLYGIGFGPFIITNKHLFRRNNGTLVVQSLHGVFKVKDTTTLQQHLVDGRDMIIIRMPKDFPPFPQKLKFREPQREERICLVTTNFQTKSMSSMVSDTSCTFPSGDGIFWKHWIQTKDGQCGSPLVSTRDGFIQGIHSASNFTNTNNYFTSVPKNFMELLTNQEAQQWVSGWRLNADSVLWGGHKVFMVKPEEPFQPVKEATQL [V165Q],0.0469,0.0494,0.0368,0.0624,0.0527,0.0448,0.0592,0.0585,0.0518,0.0734,0.0575,–,–,–,–,–,–,–
MGESLFKGPRDYNPISSSICHLTNESDGHTTSLYGIGFGPFIITNKHLFRRNNGTLVVQSLHGVFKVKDTTTLQQHLVDGRDMIIIRMPKDFPPFPQKLKFREPQREERICLVTTNFQTKSMSSMVSDTSCTFPSGMGIFWKHWIQTKDGQCGSPLVSTRDGFIVGIHSASNFTNTNNYFTSVPKNFMELLTNQEAQQWVSGWRLNADSVLWGGHKVFMVKPEEPFQPVKEATQL [D137M],0.073,0.0693,0.0423,0.0501,0.0586,0.0519,0.0752,0.0649,–,–,0.0517,0.0284,0.045,0.0662,0.0671,–,–,–
MGESLFKGPRDYNPISSSICHLTNESDGHTTSLYGIGFGPFIITNKHLFRRNNGTLVVQSLHGVFKVKDTTTLQQHLVDGRDMIIIRMPKDFPPFPQKLKFREPQREERICLVTTNFQTKSMSSMVSDTTCTFPSGDGIFWKHWIQTKDGQCGSPLVSTRDGFIVGIHSASNFTNTNNYFTSVPKNFMELLTNQEAQQWVSGWRLNADSVLWGGHKVFMVKPEEPFQPVKEATQL [S130T],0.0601,0.06,–,–,–,–,–,0.0656,–,–,–,–,–,–,0.0677,0.0866,–,–
MGESLFKGPRDYNPISSSICHLTNESDGHTTSLYGIGFGPFIITNKHLFRRNNGTLVVQSLHGVFKVKDTTTLQQHLVDGRDMIIIRMPKDFPPFPQKLKFREPQREERICLVTTNFQTKSMSSMVSDTSCTFPSGDGIFWKHWIQTKDGQCGSPLCSTRDGFIVGIHSASNFTNTNNYFTSVPKNFMELLTNQEAQQWVSGWRLNADSVLWGGHKVFMVKPEEPFQPVKEATQL [V157C],0.0721,0.0645,0.0583,0.0689,0.0558,–,0.0656,0.0519,–,0.0496,0.0618,0.0236,–,0.0639,0.0615,–,0.0714,–
MGESLFKGPRDYNPISSSICHLTNESDGHTTSLYGIGFGPFIITNKHLFRRNNGTLVVQSLHGVFKVKDTTTLQQHLVDGRDMIIIRMPKDFPPFPQKLKFREPQREERICLVTTNTQTKSMSSMVSDTSCTFPSGDGIFWKHWIQTKDGQCGSPLVSTRDGFIVGIHSASNFTNTNNYFTSVPKNFMELLTNQEAQQWVSGWRLNADSVLWGGHKVFMVKPEEPFQPVKEATQL [F117T],0.0938,–,–,0.0737,–,–,0.0646,0.0532,0.102,0.0273,–,0.0554,–,–,–,–,0.0795,0.0514
MGESLFKGPRDYNPISSSICHLTNESDGHTTSLYGIGFGPFIITNKHLFRRNNGTLVVQSLHGVFKVKDTTTLQQHLVDGRDMIIIRMPKDFPPFPQKLKFREPQREERICLVTTNFQTKSMSSMVSDTSCTFPSGDGIFWKHWIQTKDGQCGEPLVSTRDGFIVGIHSASNFTNTNNYFTSVPKNFMELLTNQEAQQWVSGWRLNADSVLWGGHKVFMVKPEEPFQPVKEATQL [S154E],0.0505,–,–,0.0732,0.0554,–,0.0593,0.0325,–,–,0.0664,0.0623,0.0696,0.0442,0.0761,–,0.0733,–
MGESLFKGPRDYNPISSSICHLTNESDGHTTSLYGIGFGPFIITNKHLFRRNNGTLVVQSLHGVFKVKDTTTLQQHLVDGRDMIIIRMPKDFPPFPQKLKFREPQREERICLVTTNFQTKSMSSMVSDTSCTFPSGDGIFWKHWIQTKDGQCHSPLVSTRDGFIVGIHSASNFTNTNNYFTSVPKNFMELLTNQEAQQWVSGWRLNADSVLWGGHKVFMVKPEEPFQPVKEATQL [G153H],0.0242,0.0434,0.0548,0.0394,0.0661,0.0512,0.0303,0.0454,–,0.0433,0.0419,0.055,0.051,0.0503,0.0479,0.0615,0.0567,–
MGESLFKGPRDYNPISSSICHLTNESDGHTTSLYGIGFGPFIITNKHLFRRNNGTLVVQSLHGVFKVKDTTTLQQHLVDGRDMIIIRMPKDFPPFPQKLKFREPQREERICLVTTNFQTKSMSSMVSDTSCTFPSGDGIFWKHWIQTKDGQCDSPLVSTRDGFIVGIHSASNFTNTNNYFTSVPKNFMELLTNQEAQQWVSGWRLNADSVLWGGHKVFMVKPEEPFQPVKEATQL [G153D],0.0525,–,0.0423,0.0296,0.106,0.0595,0.0458,0.0459,–,–,0.0341,0.0499,–,–,–,0.0617,0.0501,–
MGESLFKGPRDYNPISSSICHLTNESDGHTTSLYGIGFGPFIITNKHLFRRNNGTLVVQSLHGVFKVKDTTTLQQHLVDGRDMIIIRMPKDFPPFPQKLKFREPQREERICLVTTNFQTKSMSSMVSDTSCTFPSGDGIFWKHWIQTKDGQCASPLVSTRDGFIVGIHSASNFTNTNNYFTSVPKNFMELLTNQEAQQWVSGWRLNADSVLWGGHKVFMVKPEEPFQPVKEATQL [G153A],0.057,–,–,–,0.066,–,0.0546,–,–,–,–,–,–,–,0.0474,–,0.065,–
MGESLFKGPRDYNPISSSICHLTNESDGHTTSLYGIGFGPFIITNKHLFRRNNGTLVVQSLHGVFKVKDTTTLQQHLVDGRDMIIIRMPKDFPPFPQKLKFREPQREERICLVTTNFQTKSMSSMVSDTSCTFPSGDEIFWKHWIQTKDGQCGSPLVSTRDGFIVGIHSASNFTNTNNYFTSVPKNFMELLTNQEAQQWVSGWRLNADSVLWGGHKVFMVKPEEPFQPVKEATQL [G138E],0.0405,–,–,–,–,–,–,0.0529,–,–,–,–,–,0.0655,–,–,–,–
MGESLFKGPRDYNPISSSICHLTNESDGHTTSLYGIGFGPFIITNKHLFRRNNGTLVVQSLHGVFKVKDTTTLQQHLVDGRDMIIIRMPKDFPPFPQKLKFREPQREERICLVTTNFQTKSMSSMVSDTSCTFPSGDGIFWKHWIQTKDGQCGSPLVTTRDGFIVGIHSASNFTNTNNYFTSVPKNFMELLTNQEAQQWVSGWRLNADSVLWGGHKVFMVKPEEPFQPVKEATQL [S158T],0.108,–,–,0.0648,–,–,–,–,–,0.0574,–,–,–,–,–,–,–,–
